# In PubChem BioAssay AID504339 (National Center for Advancing Translational Sciences (NCATS), 2011):
# Among all 390,000 compounds or so, about 17,000 (4.4%) were called active. The shares of active, inactive and inconclusive entries below differ from those in the screen. The call rests on the fitted dose curve; in most records, active means well fitted inhibition curve with a large enough effect; inconclusive means small, poorly fitted or top-dose-only effect; inactive means no such curve, though single readings can be large or run the other way. Potencies of inconclusive entries are doubtful fits and often do not repeat.
# Target: Lysine-specific demethylase 4A (Homo sapiens) (UniProt O75164)
# Experiment: qHTS Assay for Inhibitors of JMJD2A-Tudor Domain; further: nearly all actives have a fitted effect of over 50% in size
# Conditions: AlphaScreen JMJD2A-Tudor / H3K4me3 peptide binding; activity change, negative = inhibition: at 114 µM (top of the series)
# On the % scale 0 is the no-effect control and ±100 the full control effect; potency means the concentration at half of the fitted maximal effect; tags describe the fitted curve by direction and shape.
# Sequence of UniProt O75164 (O75164 whole entry, looked up, the tested form may be a part): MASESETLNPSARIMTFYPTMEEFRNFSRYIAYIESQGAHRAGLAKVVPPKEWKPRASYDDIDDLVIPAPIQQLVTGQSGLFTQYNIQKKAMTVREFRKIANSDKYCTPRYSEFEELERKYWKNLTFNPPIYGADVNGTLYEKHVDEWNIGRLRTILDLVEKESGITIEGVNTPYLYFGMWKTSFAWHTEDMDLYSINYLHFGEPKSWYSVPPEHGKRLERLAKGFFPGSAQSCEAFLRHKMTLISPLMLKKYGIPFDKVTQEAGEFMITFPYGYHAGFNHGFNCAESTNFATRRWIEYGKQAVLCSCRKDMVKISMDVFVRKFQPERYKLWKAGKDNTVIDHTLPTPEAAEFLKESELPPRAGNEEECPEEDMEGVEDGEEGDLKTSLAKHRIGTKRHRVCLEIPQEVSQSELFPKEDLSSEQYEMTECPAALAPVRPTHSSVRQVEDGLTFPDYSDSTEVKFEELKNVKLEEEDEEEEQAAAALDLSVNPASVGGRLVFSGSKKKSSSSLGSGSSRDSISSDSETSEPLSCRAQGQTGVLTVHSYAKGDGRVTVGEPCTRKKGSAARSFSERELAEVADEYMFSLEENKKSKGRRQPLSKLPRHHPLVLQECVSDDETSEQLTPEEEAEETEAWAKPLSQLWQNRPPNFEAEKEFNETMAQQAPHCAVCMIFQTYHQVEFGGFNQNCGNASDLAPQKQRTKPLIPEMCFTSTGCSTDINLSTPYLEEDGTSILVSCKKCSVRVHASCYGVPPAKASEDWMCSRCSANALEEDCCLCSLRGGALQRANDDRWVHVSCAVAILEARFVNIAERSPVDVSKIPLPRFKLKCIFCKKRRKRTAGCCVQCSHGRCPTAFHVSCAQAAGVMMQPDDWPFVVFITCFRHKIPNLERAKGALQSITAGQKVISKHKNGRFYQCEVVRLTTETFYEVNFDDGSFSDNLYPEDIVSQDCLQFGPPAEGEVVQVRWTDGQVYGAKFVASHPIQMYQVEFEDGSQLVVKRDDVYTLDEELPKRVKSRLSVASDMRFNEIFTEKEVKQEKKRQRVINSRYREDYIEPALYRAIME
Structure (SMILES),Potency,"activity change, negative = inhibition"
Cc1[nH]n(-c2ccccc2)c(=O)c1/C=N/N(c1ccccc1)c1ccccc1,active: 39.8 µM,–
COc1ccc(-c2csc(Nc3ccc(S(N)(=O)=O)cc3)n2)cc1OC,"inconclusive: 14.1 µM [inhibitor, partial curve]",–
Cc1cc(C(=O)CSc2nnnn2-c2ccc(O)cc2)c(C)n1C,active: 44.7 µM,–
Cc1cccc(Cn2c(=O)n(CCc3ccccc3)c(=O)c3c(C)c(C)sc32)c1,inactive,–
COc1cnc(-c2ccccn2)nc1N(C)C,active: 22.4 µM,–
Cc1cc(C)c2cc(C(O)c3nnnn3Cc3ccccc3)c(=O)[nH]c2c1 (stereo not drawn),inactive,–
CNc1nc2c(C)cccn2c(=O)c1C=Nc1ccc(OC)cc1,"inconclusive: 50.1 µM [inhibitor, partial curve]",–
O=C1NC(c2cccc([N+](=O)[O-])c2)Oc2ccccc21 (stereo not drawn),inactive,–
Cc1ccc(-c2ccc(CCC(=O)O)n2-c2cccc(O)c2)cc1,"inconclusive: 39.8 µM [inhibitor, full curve, poor fit]",–
O=C1c2ccccc2C(=O)c2c1cccc2N1CCCC1,active: 5.01 µM,–
Cc1cc(C)n(-c2ccc(C(=O)Nc3cccnc3Cl)cc2)n1,inactive,–
Cc1ccc(C(=O)Nc2ccc3oc(-c4ccc(C(C)(C)C)cc4)nc3c2)cc1,inactive,–
CC(C)NOC(=O)c1ccc(Cl)cc1,inactive,–
O=C(COC(=O)c1cc([N+](=O)[O-])ccc1N1CCOCC1)c1ccccc1Cl,"inconclusive: 56.2 µM [inhibitor, partial curve]",–
CCOC(=O)c1cccc(NC(=O)Cn2ncc3c4ccccc4n(Cc4ccccc4)c3c2=O)c1,"inconclusive: 17.8 µM [inhibitor, partial curve]",–
COc1ccc(-c2cc3c(=O)n(CC(=O)NCc4cccnc4)ncn3n2)cc1,"inconclusive: 89.1 µM [inhibitor, partial curve, poor fit]",–
COc1ccccc1N1CCN(C(=O)c2ccc3c(Cl)c4c(nc3c2)CCCC4)CC1,"inconclusive: 31.6 µM [inhibitor, full curve, poor fit]",–
COC(=O)c1ccc(OC)c(Cn2c(=O)n(Cc3ccccc3)c(=O)c3c2c2cc(OC)ccc2n3C)c1,inactive,–
CCCCc1cc(=O)oc2cc(C)c(CN3CCCC3)c(O)c12,active: 50.1 µM,–
COc1cccc2sc(N(CCN(C)C)C(=O)c3ccc4c(c3)CCCC4)nc12,"inconclusive: 50.1 µM [inhibitor, partial curve]",–
CCOc1cc(C(C(=O)NCC2CCCO2)N(C(=O)Cn2nnc3ccccc32)c2ccc(OC)c(OC)c2)ccc1O (stereo not drawn),inactive,–
CCCCOc1ccc(C(=O)N2CCN(CCc3ccccn3)CC2)cc1,inactive,–
Cn1c(-c2ccccc2O)cc2ccccc21,"inconclusive: 79.4 µM [inhibitor, single point]",–
Cc1ccc(C(C)(C)C)c(OCCN2CCCC2)c1,active: 3.98 µM,–
CCCCCCCCCCS(=O)(=O)N/N=C/c1ccc(O)cc1,"inconclusive: 22.4 µM [inhibitor, single point]",–

Structure (SMILES),Potency,"activity change, negative = inhibition"
O=C(O)c1ccc(C2NCC(c3ccccc3Cl)c3c2[nH]c2ccccc32)cc1 (stereo not drawn),"inconclusive: 89.1 µM [inhibitor, single point]",–
C/C(=N\Nc1cccc(C(=O)O)c1)c1ccc2c(c1)Nc1ccccc1S2,active: 56.2 µM,–
COc1ccccc1N1C(=NC(=O)CCC2CCCC2)SC2CS(=O)(=O)CC21 (stereo not drawn),inactive,–
Cc1ccc(S(=O)(=O)N2CCCCC2)cc1NC(=O)c1cc(F)c(F)c(F)c1F,inactive,–
CC1CCCN(c2ccc(F)cc2N)C1 (stereo not drawn),–,inconclusive: -48.9% [inhibitor]
Cc1nc2ccc([N+](=O)[O-])cc2c(=O)n1Cc1cccc(Br)c1,"inconclusive: 17.8 µM [inhibitor, full curve]",–
COc1ccc(-c2nc3ccc(NC(C)=O)cc3c(=O)n2Cc2ccccc2)cc1COc1ccc(NC(C)=O)cc1,"inconclusive: 79.4 µM [inhibitor, single point]",–
O=C(O)c1ccc(-n2c(-c3ccc(Br)cc3)n[nH]c2=S)cc1,active: 7.08 µM,–
Cc1cc(C(=O)CSc2nc3ccc(Cl)cc3[nH]2)c(C)n1CC1CCCO1 (stereo not drawn),"inconclusive: 56.2 µM [inhibitor, partial curve]",–
CCOc1ccc2[nH]c(=O)c(CN(CCN3CCCC3)C(=S)Nc3ccccc3OC)cc2c1,inactive,–
Cc1cccc(Sc2c([N+](=O)[O-])ncn2C)c1,inactive,–
CCCCNc1c(-c2cccc(-c3cc(C(C)=O)cs3)c2)nc2ccc(C)cn12,active: 25.1 µM,–
COC(=O)c1cc2ccccc2c(-c2c(O)ccc3ccccc23)c1O,"inconclusive: 31.6 µM [inhibitor, partial curve]",–
Cc1cccc(NC(=S)NCCc2ccccc2)c1C,inactive,–
O=S(=O)(c1ccc(F)cc1)N1CCN(S(=O)(=O)c2cc(F)ccc2F)CC1,"inconclusive: 20 µM [inhibitor, partial curve]",–
S=C(c1ccc(-c2ccccc2)o1)N1CCCCC1,active: 20 µM,–
COc1ccc(-c2cc(C)nc3c(-c4ccc(OC)c(OC)c4)c(C)nn23)cc1,active: 28.2 µM,–
COc1ccc(N2CCN(C(=O)c3cc4ccc5cccnc5c4[nH]3)CC2)cc1,"inconclusive: 50.1 µM [inhibitor, partial curve]",–
CCCNC(=O)CS(=O)(=O)c1ccccc1,inactive,–
O=C(/C=C/c1ccco1)NCC(=O)N/N=C/c1ccc([N+](=O)[O-])cc1,active: 14.1 µM,–
Oc1ccc(Br)cc1/C=N/NC(=S)NCCc1ccccc1,"inconclusive: 44.7 µM [inhibitor, partial curve]",–
COc1ccc(NS(=O)(=O)c2cc(OC)ccc2NC(=O)c2cc(C)oc2C)cc1,"inconclusive: 50.1 µM [inhibitor, partial curve]",–
O=C1C=C(c2ccc3ncccc3c2)C[C@@H](c2ccc(F)cc2)C1,"inconclusive: 25.1 µM [inhibitor, single point]",–
Cn1c(C(=O)N2CCN(c3ccc([N+](=O)[O-])cc3)CC2)cc2c(=O)[nH]c3ccccc3c21,"inconclusive: 1.58 µM [inhibitor, full curve, poor fit]",–
CC(C)C(=O)Nc1ccc(NC(=O)c2ccccn2)cn1,"inconclusive: 89.1 µM [inhibitor, partial curve, poor fit]",–

Structure (SMILES),Potency,"activity change, negative = inhibition"
O=C(NCc1ccccn1)c1nc(Cn2ccc([N+](=O)[O-])n2)no1,"inconclusive: 20 µM [inhibitor, partial curve]",–
Cc1ccc(C2=NS(=O)(=O)N(C)C(C(=O)NCc3ccc(F)cc3)=C2)cc1,"inconclusive: 56.2 µM [inhibitor, partial curve]",–
CC1CCN(S(=O)(=O)c2cccc(C(=O)NCc3ccco3)c2)CC1,"inconclusive: 89.1 µM [inhibitor, single point]",–
COc1ccc(CCNC(=O)C2CCN(C(=O)c3ccc(C(C)(C)C)cc3)CC2)cc1,inactive,–
COC(=O)c1sc(S(=O)(=O)N2CC(C)OC(C)C2)c(C(=O)OC)c1C (stereo not drawn),inactive,–
CCCC(=O)Nc1nnc2n1CCS2,active: 79.4 µM,–
Cc1ccc(S(=O)(=O)N2CCN(c3nc(-c4ccncc4)nc4ccccc34)CC2)cc1,"inconclusive: 20 µM [inhibitor, full curve]",–
CCN(CC(=O)Nc1sc2c(c1C#N)CCC(C)C2)Cc1nc2ccccc2c(=O)[nH]1 (stereo not drawn),"inconclusive: 12.6 µM [inhibitor, partial curve, poor fit]",–
CSc1ccc(-c2ccco2)nn1,inactive,–
COc1ccc([C@H]2[C@H](c3ccccc3)C(=O)N2Cc2ccccc2)cc1COc1ccc(NC(C)=O)cc1,"inconclusive: 63.1 µM [inhibitor, partial curve]",–
COC(=O)c1ccccc1NC(=O)C1CCCO1 (stereo not drawn),inactive,–
Fc1c(F)c(F)c(N/N=C/c2c[nH]c3ccccc23)c(F)c1F,"inconclusive: 22.4 µM [inhibitor, full curve]",–
CCc1n[nH]c(=S)n1/N=C/c1ccc(NC(C)=O)cc1,active: 5.01 µM,–
CC[C@]1(C(=O)OC)[C@H]2C(=O)N(C)C(=O)[C@H]2[C@H]2CN=C(SCc3ccc(OC)cc3)N21,active: 89.1 µM,–
Cc1ccc2nc(N3C(=O)C(O)=C(C(=O)c4ccco4)C3c3cccc(O)c3)sc2c1 (stereo not drawn),"inconclusive: 28.2 µM [inhibitor, partial curve]",–
CN1CCN(C2Cc3cc(F)ccc3Sc3ccc(Cl)cc32)CC1 (stereo not drawn),"inconclusive: 56.2 µM [inhibitor, partial curve]",–
COC(=O)C1=C(O)C2(C(=O)O)CC(C(=O)OC)=C(O)C(C(=O)O)(C1)C2,"inconclusive: 39.8 µM [inhibitor, single point]",–
Cc1cccc(NCC(=O)N/N=C\c2c[nH]c3ccccc23)c1,"inconclusive: 44.7 µM [inhibitor, partial curve, poor fit]",–
CCOc1ccc(N2C(=O)CC(Sc3n[nH]c(-c4ccccc4)n3)C2=O)cc1 (stereo not drawn),active: 4.47 µM,–
COc1cc(/C=C(\C#N)C(=O)Nc2ccc(C)cc2)ccc1OCc1cc(=O)n2nc(C)sc2n1,inactive,–
COC(=O)C1=NN(N=O)C2(CC(=O)N(c3cc(C)cc(C)c3)C2=O)C1 (stereo not drawn),"inconclusive: 31.6 µM [inhibitor, partial curve]",–
COC(=O)c1cc(C(=O)c2ccc(Cl)cc2)n2c(=O)/c(=C\N(C)C)sc12,inactive,–
Cc1ccc(N/N=C(\C#N)C(N)=S)cc1C,"inconclusive: 63.1 µM [inhibitor, partial curve, poor fit]",–
